Over roughly 33,000 sequences, “E-score (-0.5 to 0.5)” has its median near -0.011; the highest 2% begin near 0.28. This is one part of the list.
biological target: T1, Gcr1 (UniProt P07261); assay: PBM E-score (8-mer binding enrichment) (E-score (-0.5 to 0.5)); higher = stronger / more preferred TF binding; most listed sequences are background and not binding sites; settings: protein concentration: 100 nM; construct: GST-full length
T1 sequence: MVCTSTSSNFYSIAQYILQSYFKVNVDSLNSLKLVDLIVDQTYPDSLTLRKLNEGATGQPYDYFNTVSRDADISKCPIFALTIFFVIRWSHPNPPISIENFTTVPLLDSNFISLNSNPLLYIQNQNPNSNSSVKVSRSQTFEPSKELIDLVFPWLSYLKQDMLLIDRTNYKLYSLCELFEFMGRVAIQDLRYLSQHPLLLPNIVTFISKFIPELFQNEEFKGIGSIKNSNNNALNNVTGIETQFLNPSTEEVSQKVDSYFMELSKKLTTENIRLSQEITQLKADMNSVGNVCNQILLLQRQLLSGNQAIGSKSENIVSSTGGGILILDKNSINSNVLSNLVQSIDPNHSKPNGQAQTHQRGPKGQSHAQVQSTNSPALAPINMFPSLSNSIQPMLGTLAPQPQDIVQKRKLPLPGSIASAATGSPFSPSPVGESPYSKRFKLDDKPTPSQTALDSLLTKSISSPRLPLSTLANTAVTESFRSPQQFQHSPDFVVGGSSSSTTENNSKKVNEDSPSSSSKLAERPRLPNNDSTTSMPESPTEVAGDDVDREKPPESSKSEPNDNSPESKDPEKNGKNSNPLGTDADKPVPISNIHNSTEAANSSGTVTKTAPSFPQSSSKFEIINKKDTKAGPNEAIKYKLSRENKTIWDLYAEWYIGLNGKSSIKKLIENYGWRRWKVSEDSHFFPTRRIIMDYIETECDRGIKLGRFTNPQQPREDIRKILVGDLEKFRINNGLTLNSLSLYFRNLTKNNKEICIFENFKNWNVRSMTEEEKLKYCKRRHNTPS
Outline: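 Yeast transcription factors carrying a GST tag, as full-length proteins or DNA-binding domains, were produced by PURExpress in vitro transcription/translation. About 100-200 nM protein was applied to universal all-10-mer Agilent arrays, double-stranded by primer extension on fresh or once-stripped slides. Bound protein was detected with fluorescent anti-GST, and scans were normalised with masliner. The Universal PBM Analysis Suite gave each ungapped eight-base word, pooled with its reverse complement, an E-score, a modified Wilcoxon-Mann-Whitney statistic.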

Sequence	PBM E-score
CACACAAA	0.0777
GTGCGCGA	0.0278
CAGTTCAC	0.00709
AGAGGCAC	0.161
GCTTGGCA	-0.0659
TAAATATA	0.188
ACTGGCCT	-0.121
AAAGTGAC	-0.207
CCTAGTCA	-0.234
CTTCGAGA	-0.128
GTCAAAAA	0.144
GACAGTCC	-0.251
ACGACAAG	-0.127
CAGAGTAG	0.0147
ATGACATG	-0.0581
AGGTACGG	-0.174
ACAGGCGG	-0.078
ACGGCTGG	-0.253
CGCTGATA	-0.199
CTATGCTC	-0.0414
AAACGCTG	0.016
ATTAGGGA	0.128
GCCCACAC	0.133
AATAGGGG	0.215
CGCAGGAG	-0.0971

Sequence	PBM E-score
ACGGTAGT	-0.109
AAGGTGTC	0.0915
GTAACCAC	0.132
TGCGGCAA	-0.0141
AGAAAGAT	-0.134
CTTCCTTC	-0.00246
CATACTTC	-0.186
GCAGTAAA	-0.141
AGTTTTCC	-0.101
AGCTTAAC	-0.106
ATGCAGAA	0.175
ATATGTAG	0.0777
AAAACACG	0.128
CCAGCGGG	0.0339
GCTGGCTA	-0.259
ATTATTAC	0.177
CATGAATG	0.15
CCTAGGGC	-0.0655
ATGTGCAG	-0.162
CGAATACA	0.253
CCTTCTAA	-0.0438
ATATCATG	-0.0473
CGGAACAA	-0.0157
AAAACGGC	0.0677
AGCAAAAT	0.051

Sequence	PBM E-score
CGTGGGCC	-0.23
CTGGACGA	-0.0396
GTCACGAA	0.0893
CGGACAAA	-0.233
GGTGGCGA	-0.0473
CACATACC	-0.0696
GAACTTAC	-0.289
AGCTTCTC	0.25
CGGTCTTA	-0.196
AATGTTAC	-0.0346
AGTCGGTC	-0.106
AACGTTGT	0.0452
CGAAGACG	0.0533
TCCAAACA	0.135
CGCTTTTC	0.102
GACAAGAC	0.0539
CAGTGAGA	0.0173
ATACCTGG	0.0555
CGATGTGA	-0.0422
GTTTATGA	-0.129
CGTCTTAA	0.192
AGGGTACA	-0.0876
ACAGGGTC	0.0336
ATCTTGAA	0.0985
TAAGATAA	-0.0012

Sequence	PBM E-score
CTGTTGTC	-0.0893
TTCTTCAA	0.0922
AATCAGCC	-0.0813
CTCTGGCA	0.12
CTTTTACC	-0.0196
GGCGCCAC	0.253
CAGCTTCC	0.457
GTGGGAAC	0.253
CGCCGACG	0.0121
ACACCCCC	-0.242
CATCGATA	0.0219
CAGATTGC	-0.169
ACCGCCCT	-0.123
GGCGGGAA	0.0372
ACGACTAT	-0.216
CTCATCCC	-0.143
CACCTCAG	-0.0306
CAAGGCCA	-0.205
CGTGAGGC	-0.0867
AGGGATCG	-0.151
GGCGGACC	-0.182
CCCGTTGA	-0.059
GCCAGCAA	-0.00361
CTAAACAC	0.0567
ACGACTAA	-0.15

Sequence	PBM E-score
AAAGTAAG	-0.118
CATCGGGC	-0.136
TGGATACA	0.0302
CCCGTGTC	0.0263
CAGAGGAA	0.0251
CCATTCGC	0.0469
TGTCGTAA	-0.124
CGAAAAGC	0.0636
GCCAACTA	0.0299
ATTTAGTC	-0.0246
CGCGAGGA	-0.148
AAATAAGC	0.0516
ACTTGTAA	-0.0385
AATATGTC	0.0516
GCTGGTCC	-0.0587
ATCGTAAC	-0.0575
ACGGTGGG	0.116
CGGTACCG	-0.0587
GGCTTTTA	-0.0552
GATTCCGC	0.224
TCCAAGCA	-0.165
CACGGTCG	-0.217
CTGTCTAA	-0.108
TCTAGGCA	0.128
CACGCGAG	-0.213

Sequence	PBM E-score
GAGCAGAC	-0.093
AGAGGTGG	0.0606
AGTAAAGG	0.219
ACTAGGCC	-0.117
TGACAACA	-0.0143
CCGTAAGG	-0.0594
GTTAGATA	-0.0212
CTTGGGGA	0.0137
ACTCGCAT	-0.0648
CACATGCC	-0.234
CTTGCCAA	-0.0564
TTCAGGAA	0.189
AAAGACCA	-0.155
ATGACATC	0.0887
CCCTAGGG	-0.0596
CACCTCAA	0.0922
ATGAACGA	-0.0674
TGACCAAA	0.0367
ATTAGGCG	0.309
AATAATCT	-0.138
GGAACCTA	0.401
ACTGAATG	-0.0455
CGCCTACG	-0.00139
AATATCTA	-0.0219
ATTAAACA	-0.147

Sequence	PBM E-score
GAACCTCC	-0.0385
GGTGACGA	-0.118
CAGCTCCC	-0.00932
CGACTGAG	-0.0916
AGTGGAAT	0.39
CATTAACA	0.122
GAGTTGTA	0.0608
CCCCGCCG	0.0265
ATAACTTA	-0.0576
AACCGCAG	-0.0605
ACGACTCC	0.0392
CATCATGA	-0.0913
ACCGCTGC	-0.0963
CATTGTAA	-0.024
CACTGTTA	-0.0411
CGTTCCTC	-0.116
AACCGAGG	-0.198
CCTAACGC	0.00399
AGCTGAAT	0.136
CATCAGTA	-0.074
ACCACACA	0.0556
GGAGGGCC	0.0133
CTGACCTA	-0.107
ACAGCTGC	0.137
ATGATTGA	-0.00536

Sequence	PBM E-score
ATAACCTG	0.0173
AAATTGTT	0.0443
CTCGCTTA	-0.0713
ATCTGCCA	-0.0494
ATATGGTC	0.066
CCACGCAC	-0.137
ATACCTCG	0.0197
CCTATCGC	0.0835
AAGCGGGC	-0.0899
CCATAAGC	-0.135
AAGTCGCA	-0.0123
TATGTCAA	-0.0242
CCGATCCG	-0.124
AATCGCGA	-0.108
ATGGCGCC	0.343
AGACGGCA	-0.201
CACTGTAG	-0.115
ACTCGACC	-0.209
ATAGATAA	0.0925
AAGAGAGC	-0.276
CCGGTAAA	0.149
GGCAAGGA	-0.156
CAGCACTG	-0.19
AGACATTC	0.0235
CCAAAGAA	0.136

Sequence	PBM E-score
CAGACCAG	0.0694
CCTGTGCA	-0.0701
AGTCTAAT	0.105
GATTGACA	-0.0893
AGGGTCTG	-0.215
ACGAGCCA	-0.0923
GATTGACC	-0.122
GACTGATC	-0.154
AGCCATCG	-0.209
AAGCCCGC	0.144
GCCACAAC	0.246
CCACAGGC	-0.0205
AGAGCGCC	0.0412
AGTACCGA	-0.0864
CTATTCGA	-0.0452
CTTGCCGC	-0.061
CAAAGTCA	-0.0915
AGATGCAC	-0.0398
AAAAATGC	0.153
